Test results from PubChem BioAssay AID1345083 (National Center for Advancing Translational Sciences (NCATS), 2018).
The campaign covered roughly 94,000 compounds. About 6,200 (6.6%) were called active. The inconclusive results got no clear call from the source; some entries with a clear call stand among them for comparison. Calls follow the shape of the dose curve; as a rule, active = well fitted inhibition curve with a large enough effect; inconclusive = small, poorly fitted or top-dose-only effect; inactive = flat fitted curve, though single readings scatter. Potencies beside an inconclusive call are fits to weak or partial responses and may not hold up.

Experiment: Cytotoxic Profiling in HEK 293 Cell Line of Diverse Libraries Using Quantitative High-Throughput Screening; also: nearly all actives have a fitted effect of over 60% in size
Details: HEK 293 viability, ATP luminescence (CellTiter-Glo), 48-72 h; series mostly up to 115 µM
How it was run: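 Luminescence from cellular ATP, measured with CellTiter-Glo, indicates HEK 293 viability. Cells plated at 250 cells/well are treated with compound for 48 or 72 hr at 37 degree Celsius before reagent addition.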
Potency is read from the fitted curve at half-maximal effect; tags tell the direction and shape of the fitted curve.

Compound | Potency
Cc1noc2c(N3CC(O)C3)cc(-c3ccsc3)nc12 | inactive
O=C(Cc1ccccc1)NCC1CN(Cc2ccncc2Cl)CC12CN(c1ccccc1)C2 (stereo unspecified) | inconclusive: 50.1 µM [inhibitor, partial curve, poor fit]
O=C(c1nc2cccnc2n(C2CCCC2)c1=O)N1CCOCC1 | inactive
COc1ccc(C2Cn3nnc(-c4nc(C(C)(C)C)no4)c3CO2)cc1 (stereo unspecified) | inconclusive: 50.1 µM [inhibitor, partial curve, poor fit]
COc1ccc(C(=O)N2CCCN(c3cc(-c4ccccc4)[nH]n3)CC2)c(OC)c1 | active: 39.8 µM
CC(C)Nc1ccnc(N2CCN(Cc3ccccc3F)C(CCO)C2)n1 (stereo unspecified) | inconclusive: 31.6 µM [inhibitor, partial curve]
O=C(c1ccccc1Cl)N1CCCC(C(=O)N2CCC(N3CCOC3=O)CC2)C1 (stereo unspecified) | inactive
COCCNC(=O)C1(C)CN(Cc2ccccc2)Cc2ccc(Nc3ccccc3)nc21 (stereo unspecified) | inconclusive: 31.6 µM [inhibitor, full curve]
O=C(NCCc1ccccc1F)c1ccc2nnc(Cc3ccco3)n2c1 | inactive
CNC(=O)c1cccc(-c2cnc3[nH]cc(CC(=O)NCc4cccc(F)c4)c3c2)c1 | inconclusive: 44.7 µM [inhibitor, full curve]
Oc1ccc(-c2nc(C3CC3)nc3c2CCN(Cc2ccncc2)CC3)cc1 | inactive
COCCOC1CCN(C(=O)c2cc(C)n(CCOC)c2C)CC1 | inactive
CCCCNC(=O)C1CCN(C(=O)c2nnn3c2COC(c2ccc(OC)cc2)C3)CC1 (stereo unspecified) | inactive
COc1ccc(CN2C=C(C(=O)OCc3noc(-c4cccc(F)c4)n3)C(C)=NS2(=O)=O)cc1 | inactive
CCOC(=O)[C@@H]1[C@@H](OC(N)=O)C(=O)N(Cc2ccccc2)C12CCN(C(=O)CC(C)C)CC2 | inconclusive: 89.1 µM [inhibitor, single point]
COc1ccc2[nH]c3c(c2c1)CCNC31CCN(C(=O)NC(C)(C)C)CC1 | inconclusive: 56.2 µM [inhibitor, partial curve, poor fit]
CCN1C(=O)C2CC3(CCN(C(=O)CN4CCCC4=O)CC3)CN2C1=O (stereo unspecified) | inactive
O=C(NC1CCN(CCn2nc3n(c2=O)CCCC3)C1)c1ccc2c(c1)OCO2 (stereo unspecified) | inactive
CC(=O)N1CCC(N2C(=O)c3c(c(C)nn3-c3ccccc3)C2C)C1 (stereo unspecified) | inactive
c1ccc2c(c1)CC(N1CCC(CN(CCCn3cccn3)CC3CCCO3)CC1)C2 (stereo unspecified) | inconclusive: 89.1 µM [inhibitor, single point]
COc1ccc(CN2C(=O)[C@@H]3C[C@@H](O)CN3C3(CN(Cc4ccc(F)cc4)C3)C2=O)cc1 | inactive
Cc1cn2nc(C(=O)NCc3ccc(Cl)cc3)cc2c(N2CCCC2)n1 | inconclusive: 89.1 µM [inhibitor, single point]
CCOC(=O)C1=C(C)N=C2SC=C(CC(=O)NCC3CCCO3)N2C1c1ccc(C)cc1C (stereo unspecified) | inconclusive: 100 µM [inhibitor, single point]

Compound | Potency
CC1(Cc2ccc3c(c2)OCO3)CCC(=O)N(CCc2ccncc2)C1 (stereo unspecified) | inconclusive: 89.1 µM [inhibitor, single point]
CN(Cc1cccnc1)C1CCc2ccccc21 (stereo unspecified) | inconclusive: 126 µM [inhibitor, single point]
COc1ccc(NC(=O)[C@@H]2C[C@H](c3ccc(F)cc3)N(Cc3csc(C)n3)C2)cc1 | active: 79.4 µM
Cc1cc(C)c2[nH]c(C(=O)NCc3nc(-c4ccccn4)no3)c(C)c2c1 | inconclusive: 89.1 µM [inhibitor, single point]
O=C(NC1CC1)c1ccc2nc(-c3ccncc3)oc2c1 | inconclusive: 126 µM [inhibitor, single point]
CN(C)c1ccc(CN2CCNc3cc(Nc4ccccc4)ncc3C2)cc1 | inconclusive: 70.8 µM [inhibitor, full curve, poor fit]
O=C(C[C@@H]1CCNC[C@@H]1Cc1cc(-c2ccccc2)on1)NCc1cccs1 | active: 89.1 µM
OC1(c2nc(Nc3ccc(Oc4ccccc4)cc3)n[nH]2)CCOCC1 | inconclusive: 89.1 µM [inhibitor, partial curve, poor fit]
COc1ccccc1CN1CCc2nc(C(=O)Nc3cccc(C(F)(F)F)c3)oc2CC1 | active: 31.6 µM
COc1cc(Cl)ccc1C(=O)N[C@@H]1CN(c2ncccn2)C[C@H]1CN(C)C | inactive
Cc1ccc(C(=O)N(C)Cc2cccc(C(F)(F)F)c2)cc1 | active: 100 µM
Cc1cc(C)n(CC(=O)N2CCCC2c2nc(CCOCC3CCOCC3)no2)n1 (stereo unspecified) | inconclusive: 63.1 µM [inhibitor, partial curve, poor fit]
O=C1CCCCCN1C1CCN(Cc2ccccc2)CC1 | inactive
Cc1ccc(-c2ccc(C=O)cc2)c(C)c1 | inactive
COc1ccccc1-n1c(=O)c(C(=O)N2CCC(c3ccccc3)CC2)nc2cccnc21 | inactive
COc1ccc(S(=O)(=O)N2CCC(Cc3nncn3C)CC2)cc1 | inactive
CC(C)(C)c1ccc(C(=O)Nc2nc3c(s2)C[C@@H]2[C@](C)(CO)[C@H](O)CC[C@@]2(C)[C@@H]3CC(=O)NCc2cccs2)cc1 | inconclusive: 20 µM [inhibitor, full curve]
COc1cccc(-c2nc3ccc(-c4ccc5c(c4)OCO5)cc3o2)c1OC | inconclusive: 63.1 µM [inhibitor, partial curve, poor fit]
CCCNC(=O)N1CC(Oc2cccc(-c3nc(-c4ccccc4)no3)c2)C1 | active: 28.2 µM
CC(C(=O)N1CCC(c2cc(Cc3ccccc3)[nH]n2)CC1)N1CCCC1=O (stereo unspecified) | inconclusive: 15.8 µM [inhibitor, full curve, poor fit]
CN(Cc1ccccc1)C(=O)CC1CCCN(c2cnn(C)c(=O)c2)C1 (stereo unspecified) | inactive
COc1cc(NC(=O)Cn2cccc2-c2nc(-c3ccc(F)cc3)no2)cc(OC)c1OC | inconclusive: 31.6 µM [inhibitor, full curve]
C[C@@]1(O)CCN(C(=O)c2ccc(-c3ccco3)cc2)C[C@@H]1O | inactive
